Results as given in a collection of fitness landscapes (doi:10.1016/j.celrep.2020.107928).
Whole data set: some 81,000 sequences, median “one-hybrid fitness for binding NBS DNA” near -0.1, cut for the highest 2% near 0.36. This is one part of the list.

B1: Caulobacter ParB omega fusion; a variant is named by its letters at X, in order, B8GW30 (parent)
chain: MESVVVGEPGMSEGRRGLGRGLSALLGEVDAAPAQAPGEQLGGSREAPIEILQRNPDQPRRTFREEDLEDLSNSIREKGVLQPILVRPSPDTAGEYQIVAGERAWRAAQRAGLKTVPIMVRELDDLAVLEIGIIENVQRADLNVLEEALSYKVLMEKFERTQENIAQTIGKSXSHVANXMRLLXLPDEVQSYLVSGELTAXHARAIAAAADPVALAKQIIEGGLSVRETEALARKAPNLSAGKSKGGRPPRVKDTDTQALESDLSSVLGLDVSIDHRGSTGTLTITYATLEQLDDLCNRLTRGI

Variants of: B1
Experiment: one-hybrid fitness for binding NBS DNA (the Noc-binding site; scaled: cognate 1, non-cognate 0); higher = stronger binding
Conditions: with NBS DNA site
Summary of the method: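 In E. coli USO, a HIS3 reporter with its site placed 19 bp from the promoter was used to select Caulobacter ParB variants randomised at four specificity codons. Growth lasted 48 hours at 37°C on histidine-free M9 containing 0.1 mM IPTG and 5 mM 3-AT. Fitness was taken as the log change in variant-to-wild-type read ratio from Illumina sequencing of pre- and post-selection plasmids, rescaled between the non-cognate and cognate sites.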

Row | Variant | one-hybrid fitness for binding NBS DNA
1 | CYAS | ≤ 0.2
2 | IHHS | ≤ 0.2
3 | IMPL | ≤ 0.2
4 | HEWT | ≤ 0.2
5 | APQE | ≤ 0.2
6 | ERGC | ≤ 0.2
7 | CGNV | ≤ 0.2
8 | QLTE | ≤ 0.2
9 | LQTI | ≤ 0.2
10 | CHES | ≤ 0.2
11 | RQIG | ≤ 0.2
12 | MYVG | ≤ 0.2
13 | TRQA | ≤ 0.2
14 | KAFT | ≤ 0.2
15 | LVNE | ≤ 0.2
16 | QAWF | ≤ 0.2
17 | DNCR | ≤ 0.2
18 | RGNI | ≤ 0.2
19 | GWAR | ≤ 0.2
20 | TCVM | ≤ 0.2
21 | WHNL | ≤ 0.2

Row | Variant | one-hybrid fitness for binding NBS DNA
22 | YPFG | ≤ 0.2
23 | GQVS | ≤ 0.2
24 | QDQG | ≤ 0.2
25 | RNTS | 0.3
26 | TQQW | ≤ 0.2
27 | PNQS | ≤ 0.2
28 | TPTY | ≤ 0.2
29 | TCMC | ≤ 0.2
30 | VSQG | ≤ 0.2
31 | FCRM | ≤ 0.2
32 | PCTR | ≤ 0.2
33 | KIAG | ≤ 0.2
34 | CWPI | ≤ 0.2
35 | SMTN | ≤ 0.2
36 | LVYC | ≤ 0.2
37 | LHNC | ≤ 0.2
38 | FCKS | ≤ 0.2
39 | AASF | ≤ 0.2
40 | HAPV | ≤ 0.2
41 | TFTM | ≤ 0.2
42 | THQF | ≤ 0.2

Row | Variant | one-hybrid fitness for binding NBS DNA
43 | ANID | ≤ 0.2
44 | LSCR | ≤ 0.2
45 | RVHD | ≤ 0.2
46 | ACLS | ≤ 0.2
47 | VYTQ | ≤ 0.2
48 | LMDT | ≤ 0.2
49 | EKNM | ≤ 0.2
50 | AIKD | ≤ 0.2
51 | YECV | ≤ 0.2
52 | SARA | ≤ 0.2
53 | KFKT | ≤ 0.2
54 | LCDD | ≤ 0.2
55 | IRNK | ≤ 0.2
56 | AFGC | ≤ 0.2
57 | SSVV | ≤ 0.2
58 | RAAD | ≤ 0.2
59 | LWSF | ≤ 0.2
60 | FGPC | ≤ 0.2
61 | APHI | ≤ 0.2
62 | EVTI | ≤ 0.2
63 | FEEG | ≤ 0.2

Row | Variant | one-hybrid fitness for binding NBS DNA
64 | LLSP | ≤ 0.2
65 | YDRR | ≤ 0.2
66 | SLYF | ≤ 0.2
67 | KTNS | ≤ 0.2
68 | VQYV | ≤ 0.2
69 | HPSM | ≤ 0.2
70 | QHKF | 0.297
71 | DLQS | ≤ 0.2
72 | ADYV | ≤ 0.2
73 | TITS | ≤ 0.2
74 | ICGR | ≤ 0.2
75 | LNRC | ≤ 0.2
76 | QVLT | ≤ 0.2
77 | TPPE | ≤ 0.2
78 | YAVG | ≤ 0.2
79 | ISTG | ≤ 0.2
80 | PTRF | ≤ 0.2
81 | MIRT | ≤ 0.2
82 | QSVP | ≤ 0.2
83 | FQFL | ≤ 0.2
84 | VAHW | ≤ 0.2
